Assay [1] relates to HSkMC (human skeletal muscle cells). Nature of the assay: cytotoxicity call (relative viability < 0.9). The following applies: 10 µM.
The test system of assay [2] is HepG2. Put plainly: cytotoxicity call (relative viability < 0.9). The following applies: 10 µM.
Assay [3] relates to S. aureus RN4220. Nature of the assay: growth inhibition call (relative growth <= 0.2). Conditions: 50 µM.

Results on 11 compounds are retold here after the antibiotic and cytotoxicity screens of Wong et al. (2023).

Some of the results follow.

Consider `C[C@@H]1CN([C@H](C)CO)C(=O)c2cc(C3=CCCC3)cnc2O[C@@H]1CN(C)C(=O)Nc1ccc(C(F)(F)F)cc1`, for which the cytotoxicity call in assay [1] is “inactive”. Moreover, in assay [2], the cytotoxicity call was “active”. Further, in assay [3], the growth inhibition call is “inactive”.

Take `Cc1ccc(S[C@]2(C(=O)NCc3ccccc3)CC(=O)N(Cc3cc(C(F)(F)F)cc(C(F)(F)F)c3)[C@@H]2c2ccc(CO)cc2)cc1`: the cytotoxicity call in assay [1] and in assay [2] was “inactive” throughout. The growth inhibition call in assay [3] was “inactive”.

Turning to `CN(C)CC#Cc1ccc([C@@H]2[C@H]3CN(C(=O)CN(C)C)CCCCN3[C@H]2CO)cc1`, the cytotoxicity call in assay [1] and in assay [2] was “inactive” each time. For the same compound, the growth inhibition call in assay [3] was “inactive”.

With `CN(C)CCCNC(=O)C[C@H]1CC[C@H]2[C@@H](COC[C@@H](O)CN2S(=O)(=O)c2ccc(F)cc2)O1`, the cytotoxicity call in assay [1] and in assay [2] was “inactive” in each case. Besides, the growth inhibition call in assay [3] was “inactive”.

As for `COc1cc(O)c2c(=O)c3cc(OC)c(OC)cc3oc2c1`, the cytotoxicity call in assay [1] and in assay [2] was “inactive” throughout. Besides, the growth inhibition call in assay [3] is “inactive”.

For the compound `Cc1cccc(C)c1NC(=O)c1ccccc1C(=O)O`, the cytotoxicity call in assay [1] was “inactive”. Further, the cytotoxicity call in assay [2] was “active”. Besides, the growth inhibition call in assay [3] was “inactive”.

Regarding `N[C@@H]1CC[C@H](CCn2cc(-c3ccccn3)nn2)O[C@H]1CO`, the cytotoxicity call in assay [1] and in assay [2] was “inactive” in each case. In assay [3], the growth inhibition call was “inactive”.

With `N[C@H](CCC(=O)NCC(=O)O)C(=O)O`, the cytotoxicity call in assay [1] and in assay [2] was “inactive” throughout. Besides, the growth inhibition call in assay [3] was “inactive”.

With `CC(C)NC(=O)N(C)C[C@@H]1Oc2ccc(NC(=O)CCC(F)(F)F)cc2C(=O)N([C@@H](C)CO)C[C@H]1C`, the cytotoxicity call in assay [1] and in assay [2] was “inactive” each time. Also, the growth inhibition call in assay [3] was “inactive”.

With `CC(C)C1=CC2=CCC3C(C)(C(=O)O)CCCC3(C)C2CC1` (stereo not drawn), the cytotoxicity call in assay [1] and in assay [2] was “inactive” each time. Besides, the growth inhibition call in assay [3] was “active”.

`C[C@@H]1CCCCO[C@H](CN(C)Cc2ccc3c(c2)OCO3)[C@@H](C)CN([C@@H](C)CO)C(=O)c2cc(NC(=O)Nc3ccccc3)ccc2O1`: the cytotoxicity call in assay [1] and in assay [2] was “inactive” throughout. Besides, the growth inhibition call in assay [3] was “inactive”.
